Reference: paper PMC4336329 (PLoS ONE, 2015)
The campaign covered roughly 310,000 compounds. About 14,000 (4.5%) showed an effect of 50% or more. The effect is printed as a negative number. Some of the results follow.

The compounds below were run against human ether-à-go-go-related gene (hERG) potassium channel (human, UniProt Q12809) (assay: primary screen, population patch clamp on CHO cells stably expressing hERG).
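Also: peak tail current of the secondary pulse compared with the same well before compound.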

human ether-à-go-go-related gene (hERG) potassium channel, sequence (Q12809 whole entry, looked up): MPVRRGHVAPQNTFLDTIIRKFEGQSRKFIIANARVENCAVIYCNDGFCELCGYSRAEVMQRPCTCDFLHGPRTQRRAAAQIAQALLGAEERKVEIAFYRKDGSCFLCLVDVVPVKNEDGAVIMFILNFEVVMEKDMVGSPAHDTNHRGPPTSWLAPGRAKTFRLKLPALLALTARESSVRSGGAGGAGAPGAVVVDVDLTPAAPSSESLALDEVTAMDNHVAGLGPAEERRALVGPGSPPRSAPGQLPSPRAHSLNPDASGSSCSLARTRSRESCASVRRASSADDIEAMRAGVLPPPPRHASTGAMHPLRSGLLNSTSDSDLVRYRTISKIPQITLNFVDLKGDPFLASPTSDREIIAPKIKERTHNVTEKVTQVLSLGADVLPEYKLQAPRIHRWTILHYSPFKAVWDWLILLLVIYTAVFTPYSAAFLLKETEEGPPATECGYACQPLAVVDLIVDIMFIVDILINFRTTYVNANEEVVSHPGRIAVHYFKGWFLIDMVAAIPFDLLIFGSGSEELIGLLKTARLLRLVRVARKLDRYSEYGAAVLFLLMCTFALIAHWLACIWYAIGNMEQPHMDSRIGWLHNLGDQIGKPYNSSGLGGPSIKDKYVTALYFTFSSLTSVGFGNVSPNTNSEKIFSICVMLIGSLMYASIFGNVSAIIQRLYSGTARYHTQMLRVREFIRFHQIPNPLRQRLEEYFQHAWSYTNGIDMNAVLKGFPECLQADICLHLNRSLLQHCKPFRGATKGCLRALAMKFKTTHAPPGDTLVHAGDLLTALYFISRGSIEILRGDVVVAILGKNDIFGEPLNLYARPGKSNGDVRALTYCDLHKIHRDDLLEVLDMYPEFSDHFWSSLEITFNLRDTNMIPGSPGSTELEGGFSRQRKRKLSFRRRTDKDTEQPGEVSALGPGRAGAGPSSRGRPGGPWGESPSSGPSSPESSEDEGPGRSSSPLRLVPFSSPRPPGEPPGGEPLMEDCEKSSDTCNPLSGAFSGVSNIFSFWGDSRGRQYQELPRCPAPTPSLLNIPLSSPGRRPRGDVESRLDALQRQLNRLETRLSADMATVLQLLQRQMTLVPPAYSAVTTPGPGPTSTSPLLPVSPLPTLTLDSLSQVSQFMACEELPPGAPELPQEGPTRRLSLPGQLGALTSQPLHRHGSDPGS

Structure (SMILES) | hERG current change (%, negative = inhibition) at 10uM [%]
CCCOC(=O)c1ccc(N2C(=O)c3ccccc3C2=O)cc1 | 2.96
O=C(O)c1cc(S(=O)(=O)Nc2ccc3cn[nH]c3c2)ccc1Br | 4.52
CCCOc1ccccc1NC(=O)c1ccc([N+](=O)[O-])cc1 | 2.83
COc1ccc(CNC(=O)CCCn2nc(C)c3c(C)n(-c4ccc(C)cc4)nc3c2=O)cc1 | 2.19
CCCSc1nnc(C(C)C)n1N | 2.7
O=C(C1CCCO1)N1CCC(O)(c2ccccc2)CC1 (centres unmarked) | 22.9
CC(C)(C)n1nnnc1C(c1cccs1)N1CCN(Cc2ccccc2)CC1.Cl (centres unmarked) | -9.24
COCCCNC(=S)NNC(=O)c1ccccc1Br | 10.5
CC(=O)c1csc(Nc2ccccc2Cl)n1 | 1.25
CCC(C)C(=O)Nc1cc(Cl)ccc1C(=O)O (centres unmarked) | 16.5
Cc1cccc(C(=O)Nc2cccc(OC(=O)c3cccc(C)c3)c2)c1 | 10.3
CCCNC(=O)c1cc(S(=O)(=O)N2CCc3ccccc32)cn1C | -0.715
COc1ccc(C2CC(c3ccc4ccccc4c3)=NN2C(=O)CN2CCC(C(N)=O)CC2)cc1 (centres unmarked) | 3.17
COc1cccc(-c2cc3nc(-c4ccccc4)cc(N4CCC5(CC4)OCCO5)n3n2)c1 | 5.79
O=C(CCNC(=O)c1ccccc1Cl)Nc1ccc(Cl)c(C(F)(F)F)c1 | 4.2
C/C(=N/NS(=O)(=O)c1ccc(CC(C)C)cc1)c1ccncc1 | 10.4
COc1ccccc1NC(=O)Nc1nnc(Cc2ccccc2F)s1 | 9.06
CC1CCC2(CC1)NC(=O)N(CC(=O)N1CCN(S(=O)(=O)c3ccc4c(c3)CCC4)CC1)C2=O (centres unmarked) | -6.01
COc1cc(CC(=O)OCC(=O)c2c[nH]c3ccccc23)cc(OC)c1OC | -9.58
CCCCN(C(=O)CSc1cc(C)c2ccccc2n1)c1c(N)n(Cc2ccccc2)c(=O)[nH]c1=O | -23
Cn1nc(-c2ccccc2)c(C(O)c2ccc(Cl)cc2)c1Cl (centres unmarked) | 1.55
Cc1cc(C)cc(NC(=O)C2CCCN2S(=O)(=O)c2ccc3c(c2)n(C)c(=O)c(=O)n3C)c1 (centres unmarked) | -1.95

Structure (SMILES) | hERG current change (%, negative = inhibition) at 10uM [%]
COc1cccc(OC)c1C(=O)Nc1ccc2c(c1)N(S(=O)(=O)c1cccs1)CCC2 | 10.3
CS(=O)(=O)c1ccc(Cl)c(NC(=O)COC(=O)CCc2c[nH]c3ccccc23)c1 | -38.8
COc1ccc2c3c(cccc13)C(=O)N(O)C2=O | -24
Fc1cccc(NC(=S)NCCCN2CCOCC2)c1 | -0.1
CC1(C)CN(O)CCN1O | 9.6
O=C(NC1CCCC1)C1CCN(C(=O)Nc2cccc(Cl)c2)CC1 | 11.9
Cc1nc2cc(NS(=O)(=O)c3cccc4cccnc34)ccc2s1 | 5
COc1ccc(CC(=O)NCc2n[nH]c(=S)n2-c2ccc(F)cc2)cc1 | 41.8
O=C(O)C(=O)O.O=C(c1cccnc1)N1CCN(Cc2ccc3ccccc3c2)CC1 | -31
CCCc1ccc(NC(=O)C2CCN(c3cnccn3)CC2)cc1 | -18.7
CCCN(CCC)C(=O)c1cc2c(=O)n3cccc(C)c3nc2s1 | -2.75
CCOC(=O)N/N=C1\CC(C)S(=O)(=O)c2ccc(Cl)cc21 (centres unmarked) | -3.27
CN1CCN(S(=O)(=O)c2cccc(C(=O)Oc3ccc(C(C)(C)C)cc3)c2)CC1 | 22
Cc1cc(C)n(-c2ccc(C(=O)OCC(=O)NCc3ccc(Cl)cc3)cc2)n1 | -1.38
COc1ccc(NC(=O)c2cc(C)no2)cc1OC | 14.6
O=C(N/C(=C\c1ccc(F)cc1)C(=O)N1CCOCC1)c1ccccc1 | -32
O=C1NCCN1c1ccc(CN2CCN(C3CCCCC3)C(CCO)C2)cc1 (centres unmarked) | -7.75
N#C/C(=C/c1ccc(N2CCCCCC2)o1)c1cccc(F)c1 | -9.82
C=CCN1C(=O)NC(=O)/C(=C/c2ccc(OC)c(CSc3ccccn3)c2)C1=O | 7.56
O=C(CCCc1nc2ccccc2s1)NC1CCOC1=O (centres unmarked) | -5.33
Cc1[nH]c2ccccc2c1C(=O)CN1CCC(C(N)=O)(N2CCCCC2)CC1 | 5.87
COc1ccc(S(=O)(=O)Nc2cccc(F)c2)cc1C | 3.76
